In the supplement of paper PMC10126150:
Sequences with one replicate were seen in a single cluster, so their values are uncertain.
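Note: ATP exposure 15 min at 22 °C before imaging.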

Each sequence was assayed on ATP (assay: switch fluorescence ratio, 500 uM ATP over buffer (Cy3 cluster intensity, sum of 5 cycles each) (fold (ratio)); higher = stronger signal-on switching upon ATP binding; sequences stand for … in TCGTCGGCAGCGTCAGATGTGTATAAGAGACAGTTTTTTTTTTTTTTTTTTTTTTTTT…TC). Conditions: aptamer strand: ATP DNA aptamer (quencher-CACCTGGGGGAGTATTGCGGAGGAAGG + anchor), 100 nM annealed; ATP concentration: 500 uM; one replicate.
Method in brief: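 The quencher-labelled ATP aptamer, at 100 nM, was annealed to Cy3-labelled switching-strand clusters on a modified Illumina MiSeq flow-cell. The clusters were imaged in selection buffer, then after 15 min with 500 uM ATP at 22 °C, and this buffer/ATP cycle ran five times with NaOH stripping and re-annealing between runs. Per-cluster fluorescence ratios, summed target-cycle over summed buffer-cycle Cy3 intensity, were averaged per switch-domain sequence. Clusters outside 100-1000 RFU were excluded.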
With AAGTGCCATT the switch fluorescence ratio was 1.01. AAGTGCGGAT showed a switch fluorescence ratio of 1.01. Work on AAGTGCGGTA yielded a switch fluorescence ratio of 0.992. AAGTGCTAA was tested, and the switch fluorescence ratio was 0.979. With AAGTGGAATA the switch fluorescence ratio was 1. Sequence AAGTGGTAAT has a switch fluorescence ratio of 0.982. AAGTGTCAAG was tested, and the switch fluorescence ratio was 0.998. AAGTTAATTG gave a switch fluorescence ratio of 0.988. AAGTTACAGG gave a switch fluorescence ratio of 1.08. For AAGTTCCTTG, the switch fluorescence ratio was 0.961. For AAGTTGAAGT, the switch fluorescence ratio was 0.949. Sequence AAGTTTCGAT has a switch fluorescence ratio of 1.03. AAGTTTCGTT gave a switch fluorescence ratio of 0.97. Work on AAGTTTGTAA yielded a switch fluorescence ratio of 0.964. AAGTTTGTAT gave a switch fluorescence ratio of 0.989. In the case of AAGTTTTACG, the switch fluorescence ratio is reported as 0.951. AAGTTTTTGA showed a switch fluorescence ratio of 1.01. Sequence AATAACGAGG has a switch fluorescence ratio of 1.03. AATAAGTTCT showed a switch fluorescence ratio of 0.935. With AATAATAGA the switch fluorescence ratio was 0.991. In the case of AATAATGCAT, the switch fluorescence ratio is reported as 1.06. In the case of AATAATGGGC, the switch fluorescence ratio is reported as 0.963. AATACATATC showed a switch fluorescence ratio of 1.03. AATACCTTAA gave a switch fluorescence ratio of 1.04. For AATACGACA, the switch fluorescence ratio was 1.33. With AATACGACTC the switch fluorescence ratio was 1.37. AATACGGGTA showed a switch fluorescence ratio of 1.27. AATACTAAAT was tested, and the switch fluorescence ratio was 0.986. Work on AATACTACCC yielded a switch fluorescence ratio of 2.54. With AATACTAGGT the switch fluorescence ratio was 1. Sequence AATAGAAGGG has a switch fluorescence ratio of 1.02. Sequence AATAGACTAG has a switch fluorescence ratio of 0.992. AATAGACTGC showed a switch fluorescence ratio of 0.967. With AATAGATTGA the switch fluorescence ratio was 1.02. AATAGCAG showed a switch fluorescence ratio of 1.03. AATAGCCAAC gave a switch fluorescence ratio of 1.03. Work on AATAGCCGG yielded a switch fluorescence ratio of 1.01. AATAGGCTC showed a switch fluorescence ratio of 1.05. Sequence AATAGGGAGA has a switch fluorescence ratio of 1. AATAGGTATT was tested, and the switch fluorescence ratio was 1.04. AATAGTAACG was tested, and the switch fluorescence ratio was 0.99. AATAGTGTAC gave a switch fluorescence ratio of 1.11. In the case of AATAGTTCGT, the switch fluorescence ratio is reported as 1. Sequence AATATAAAAG has a switch fluorescence ratio of 1.02. AATATAAGAA showed a switch fluorescence ratio of 0.988. In the case of AATATCTAGC, the switch fluorescence ratio is reported as 1.05. In the case of AATATCTATG, the switch fluorescence ratio is reported as 1.07. With AATATCTTAA the switch fluorescence ratio was 1.03. Sequence AATATCTTTT has a switch fluorescence ratio of 1.02. In the case of AATATGATCT, the switch fluorescence ratio is reported as 1.01. With AATATGTCGT the switch fluorescence ratio was 1. For AATATGTGCG, the switch fluorescence ratio was 1.05. In the case of AATATGTTAC, the switch fluorescence ratio is reported as 1.06. Sequence AATATTTACT has a switch fluorescence ratio of 1.16. Work on AATCACGACC yielded a switch fluorescence ratio of 1.23. For AATCACGG, the switch fluorescence ratio was 1.05. AATCACTAGT gave a switch fluorescence ratio of 1.03. AATCAGACA gave a switch fluorescence ratio of 1.05. In the case of AATCATAAAA, the switch fluorescence ratio is reported as 0.987. AATCATGTGT gave a switch fluorescence ratio of 1.01. Sequence AATCCATGTC has a switch fluorescence ratio of 1.18. Sequence AATCCATTAG has a switch fluorescence ratio of 0.987. AATCCCCAAC gave a switch fluorescence ratio of 1.05. AATCCGAATG gave a switch fluorescence ratio of 1.07. Sequence AATCCGAATT has a switch fluorescence ratio of 1.03. Work on AATCCGCTCG yielded a switch fluorescence ratio of 1.11. Sequence AATCGAAGGG has a switch fluorescence ratio of 1.01. Work on AATCGCATTT yielded a switch fluorescence ratio of 1.05. AATCGGAGTT was tested, and the switch fluorescence ratio was 0.987. AATCGGCAGA was tested, and the switch fluorescence ratio was 0.95. AATCGGCTTG was tested, and the switch fluorescence ratio was 1.02. AATCGGGGAG was tested, and the switch fluorescence ratio was 1.01. Work on AATCGTAGGG yielded a switch fluorescence ratio of 1.02. AATCGTATAA gave a switch fluorescence ratio of 0.967. AATCGTTAG showed a switch fluorescence ratio of 0.95. In the case of AATCGTTTTA, the switch fluorescence ratio is reported as 0.998. In the case of AATCTACATC, the switch fluorescence ratio is reported as 0.999. AATCTACATG was tested, and the switch fluorescence ratio was 1.03. AATCTATAC showed a switch fluorescence ratio of 1.12. AATCTCCAGG showed a switch fluorescence ratio of 1.76. With AATCTCCGTA the switch fluorescence ratio was 1.07. For AATCTCCTC, the switch fluorescence ratio was 1.07. AATCTCGTAC showed a switch fluorescence ratio of 1.03. With AATCTCTAGC the switch fluorescence ratio was 1. AATCTGTGGG showed a switch fluorescence ratio of 1.01. For AATCTTATCG, the switch fluorescence ratio was 0.953. AATCTTTCCG showed a switch fluorescence ratio of 1.02. With AATCTTTGCG the switch fluorescence ratio was 1.04. Sequence AATCTTTTT has a switch fluorescence ratio of 0.995. With AATGAAGTTG the switch fluorescence ratio was 0.971. AATGAATAGT showed a switch fluorescence ratio of 1.03. AATGACAGTG gave a switch fluorescence ratio of 1.03. AATGACGTTT was tested, and the switch fluorescence ratio was 1.05. With AATGACTCAC the switch fluorescence ratio was 1.2. AATGACTTTG was tested, and the switch fluorescence ratio was 1.02. AATGAGAGCC was tested, and the switch fluorescence ratio was 0.977. With AATGAGGAAA the switch fluorescence ratio was 0.985. AATGAGTAGC was tested, and the switch fluorescence ratio was 1.01. Work on AATGCACCTG yielded a switch fluorescence ratio of 1.06. AATGCAGCTG gave a switch fluorescence ratio of 1.02. AATGCAGTTT showed a switch fluorescence ratio of 0.948. For AATGCATGTA, the switch fluorescence ratio was 0.97. Sequence AATGCCACTG has a switch fluorescence ratio of 1.1. Work on AATGCGCCGC yielded a switch fluorescence ratio of 0.998. AATGCGCTGT gave a switch fluorescence ratio of 0.994. AATGCGGGG showed a switch fluorescence ratio of 0.971. AATGCTGTTA was tested, and the switch fluorescence ratio was 1. AATGGATGAA gave a switch fluorescence ratio of 1.02. AATGGCCCAA was tested, and the switch fluorescence ratio was 1.02. AATGGCTTAT gave a switch fluorescence ratio of 0.954. Sequence AATGGGATCT has a switch fluorescence ratio of 0.953. For AATGTACTCG, the switch fluorescence ratio was 1.07. Sequence AATGTATGAT has a switch fluorescence ratio of 0.961. AATGTCAAAG was tested, and the switch fluorescence ratio was 0.957. AATGTCCAAG was tested, and the switch fluorescence ratio was 0.989. AATGTCGGTC was tested, and the switch fluorescence ratio was 0.985. Work on AATGTTAAAA yielded a switch fluorescence ratio of 1.04. Sequence AATGTTGGGT has a switch fluorescence ratio of 0.982. With AATTAAAGAC the switch fluorescence ratio was 1.05. In the case of AATTACTTAA, the switch fluorescence ratio is reported as 1.11. In the case of AATTACTTGG, the switch fluorescence ratio is reported as 1.03. In the case of AATTAGCCCA, the switch fluorescence ratio is reported as 1.08. AATTAGCTAA was tested, and the switch fluorescence ratio was 1.03. With AATTAGCTTA the switch fluorescence ratio was 0.971. Sequence AATTAGGACC has a switch fluorescence ratio of 1.01. Work on AATTAGGCT yielded a switch fluorescence ratio of 0.997. Sequence AATTATATAC has a switch fluorescence ratio of 1.05. Sequence AATTATATTT has a switch fluorescence ratio of 1. Sequence AATTATCAAA has a switch fluorescence ratio of 0.981. AATTATCAGT gave a switch fluorescence ratio of 1.03. AATTATGCCC gave a switch fluorescence ratio of 1.1. AATTATGCGC was tested, and the switch fluorescence ratio was 1.02. In the case of AATTATGTTC, the switch fluorescence ratio is reported as 0.992. AATTATTTAA gave a switch fluorescence ratio of 1.03. Work on AATTCAGTTG yielded a switch fluorescence ratio of 1.01. Work on AATTCCTCGG yielded a switch fluorescence ratio of 1.28. AATTCGATAT was tested, and the switch fluorescence ratio was 0.986. AATTCGGTAC showed a switch fluorescence ratio of 1.13. AATTCTCCAC showed a switch fluorescence ratio of 1.09. AATTCTTATC gave a switch fluorescence ratio of 0.961. AATTCTTTAT showed a switch fluorescence ratio of 0.999. Work on AATTGAAGG yielded a switch fluorescence ratio of 0.975. AATTGAGCGT showed a switch fluorescence ratio of 1.03. Sequence AATTGATCGA has a switch fluorescence ratio of 1.06. AATTGCGGTC was tested, and the switch fluorescence ratio was 0.984. AATTGCTGCA gave a switch fluorescence ratio of 0.975. AATTGGAGAA showed a switch fluorescence ratio of 1.04. With AATTGGATAA the switch fluorescence ratio was 1.03. AATTGGCGGA was tested, and the switch fluorescence ratio was 0.999. For AATTGTAATA, the switch fluorescence ratio was 0.958. For AATTGTCCGG, the switch fluorescence ratio was 0.967. AATTGTCCTA showed a switch fluorescence ratio of 0.955. AATTGTGGTG showed a switch fluorescence ratio of 0.997. With AATTTACATT the switch fluorescence ratio was 1.07. AATTTATTAA gave a switch fluorescence ratio of 0.962. In the case of AATTTCAGGG, the switch fluorescence ratio is reported as 1.02. AATTTCTACG showed a switch fluorescence ratio of 1.04. AATTTGATCG showed a switch fluorescence ratio of 1.01. Work on AATTTGGGCT yielded a switch fluorescence ratio of 0.983. AATTTGTCGG gave a switch fluorescence ratio of 1.07. AATTTTCTCT gave a switch fluorescence ratio of 0.979. For ACAAAAAGAA, the switch fluorescence ratio was 0.974. In the case of ACAAAGTGGG, the switch fluorescence ratio is reported as 1.01. For ACAAATCTTA, the switch fluorescence ratio was 1.02. Sequence ACAAATGGAG has a switch fluorescence ratio of 1.01. ACAAATTTAA gave a switch fluorescence ratio of 1.05. Work on ACAACCATTT yielded a switch fluorescence ratio of 1.05. ACAACCCATA was tested, and the switch fluorescence ratio was 1.09. For ACAACCGAGC, the switch fluorescence ratio was 1.16. Sequence ACAACCGCTG has a switch fluorescence ratio of 1.07. ACAACGTGTA was tested, and the switch fluorescence ratio was 0.96. ACAACTGACG gave a switch fluorescence ratio of 1.11. Sequence ACAACTTTAG has a switch fluorescence ratio of 0.993. ACAACTTTCG gave a switch fluorescence ratio of 1.03. ACAAGAAACC showed a switch fluorescence ratio of 1.08. ACAAGATCAG was tested, and the switch fluorescence ratio was 1.02. With ACAAGATCTC the switch fluorescence ratio was 1.01. ACAAGCGGGG gave a switch fluorescence ratio of 0.956. ACAAGCTATT was tested, and the switch fluorescence ratio was 0.95. With ACAAGTGGCC the switch fluorescence ratio was 1.03. ACAAGTGTAT gave a switch fluorescence ratio of 1.02. ACAAGTGTGA was tested, and the switch fluorescence ratio was 1. Sequence ACAATCACG has a switch fluorescence ratio of 1.46. ACAATCATT showed a switch fluorescence ratio of 1.01. ACAATCGTTA was tested, and the switch fluorescence ratio was 0.966. Work on ACAATCTTAG yielded a switch fluorescence ratio of 1.01. Work on ACAATGCT yielded a switch fluorescence ratio of 1.06. Work on ACAATGCTTA yielded a switch fluorescence ratio of 1.03. Work on ACAATTGCTC yielded a switch fluorescence ratio of 1.1. ACACAAGGGA gave a switch fluorescence ratio of 1.02. ACACACGGCT was tested, and the switch fluorescence ratio was 1.21. For ACACAGCTGC, the switch fluorescence ratio was 1.26. ACACAGTTAC gave a switch fluorescence ratio of 1.21. For ACACATAATT, the switch fluorescence ratio was 1.11. ACACATACGT was tested, and the switch fluorescence ratio was 1.54. Work on ACACATATAG yielded a switch fluorescence ratio of 1.06. ACACATCTAT was tested, and the switch fluorescence ratio was 1.04. ACACCCGCCG showed a switch fluorescence ratio of 1.11. Sequence ACACCGAGAT has a switch fluorescence ratio of 1.14. For ACACCGGGGC, the switch fluorescence ratio was 1.08. ACACCTCATT showed a switch fluorescence ratio of 1.03.
